# According to PubChem BioAssay AID504339 (National Center for Advancing Translational Sciences (NCATS), 2011):
# Screen size: about 390,000 compounds; about 17,000 (4.4%) were called active. The inconclusive results got no clear call from the source; some entries with a clear call stand among them for comparison. Calls come from the whole dose curve; as a rule, active = well fitted inhibition curve with a large enough effect; inconclusive = small, poorly fitted or top-dose-only effect; inactive = no such curve, though single readings can be large or run the other way. Potencies beside an inconclusive call are fits to weak or partial responses and may not hold up.
# Target: Lysine-specific demethylase 4A (Homo sapiens) (UniProt O75164)
# Test: qHTS Assay for Inhibitors of JMJD2A-Tudor Domain; note: nearly all actives have a fitted effect of over 50% in size
# Conditions: AlphaScreen JMJD2A-Tudor / H3K4me3 peptide binding; activity change, negative = inhibition: at 114 µM (top of the series)
# % is set by controls: 0 for no effect and ±100 for the full control effect; potency is the fitted concentration of half-maximal effect; tags give direction and shape of the fitted curve.
# Sequence of UniProt O75164 (O75164 whole entry, looked up, the tested form may be a part): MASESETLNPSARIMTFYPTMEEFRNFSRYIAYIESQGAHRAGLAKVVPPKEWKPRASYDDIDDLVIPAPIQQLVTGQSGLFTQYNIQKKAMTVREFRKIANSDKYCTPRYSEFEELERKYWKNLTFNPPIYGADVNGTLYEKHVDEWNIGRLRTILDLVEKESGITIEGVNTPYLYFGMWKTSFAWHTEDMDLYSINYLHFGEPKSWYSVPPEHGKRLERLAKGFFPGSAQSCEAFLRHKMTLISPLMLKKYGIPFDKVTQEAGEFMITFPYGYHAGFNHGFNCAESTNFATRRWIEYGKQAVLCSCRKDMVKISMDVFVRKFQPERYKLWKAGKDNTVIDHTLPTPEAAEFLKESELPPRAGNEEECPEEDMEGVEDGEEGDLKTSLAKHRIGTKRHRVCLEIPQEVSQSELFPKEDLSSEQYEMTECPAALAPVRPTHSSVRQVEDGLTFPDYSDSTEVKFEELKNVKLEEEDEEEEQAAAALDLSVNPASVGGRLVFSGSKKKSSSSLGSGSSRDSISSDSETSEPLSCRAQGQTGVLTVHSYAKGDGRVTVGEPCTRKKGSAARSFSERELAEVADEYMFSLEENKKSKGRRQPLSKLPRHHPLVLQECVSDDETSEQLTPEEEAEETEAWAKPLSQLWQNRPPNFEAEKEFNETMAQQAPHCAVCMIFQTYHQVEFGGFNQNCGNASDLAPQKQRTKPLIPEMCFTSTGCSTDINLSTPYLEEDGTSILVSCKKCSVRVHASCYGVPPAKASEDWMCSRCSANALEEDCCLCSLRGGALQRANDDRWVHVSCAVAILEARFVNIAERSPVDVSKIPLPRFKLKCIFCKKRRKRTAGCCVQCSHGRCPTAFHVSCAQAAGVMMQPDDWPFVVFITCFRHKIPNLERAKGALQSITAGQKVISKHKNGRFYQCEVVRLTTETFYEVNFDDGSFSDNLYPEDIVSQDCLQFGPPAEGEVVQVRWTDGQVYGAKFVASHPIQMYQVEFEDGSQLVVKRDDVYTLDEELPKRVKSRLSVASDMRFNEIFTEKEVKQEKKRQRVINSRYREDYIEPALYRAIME
SMILES,Potency,"activity change, negative = inhibition"
CCNc1ccccc(C(=O)/C=C/c2ccc3c(c2)OCO3)c1=O,active: 56.2 µM,
CC(C)CCNC(=O)c1cc(Sc2ccc(F)cc2F)nc2ccccc12,inactive,
COc1ccccc1N1CCN(C(=O)c2ccc([N+](=O)[O-])s2)CC1,inactive,
COC(=O)C1=C(C)N(CC2CC2)C(=NCc2cc(OC)c(OC)c(OC)c2)N[C@H]1c1ccccc1,inactive,
CCC(Oc1ccccc1)C(=O)Nc1ccc(OCc2cc(=O)n3ccc(C)cc3n2)cc1 (centres undefined),inactive,
CCOc1ccc(NC(=S)NC(=O)/C=C/c2ccc(OC)c(OC)c2)c([N+](=O)[O-])c1,"inconclusive: 56.2 µM [inhibitor, partial curve]",
CCC(CC)C(=O)N1CCCC(c2nc(-c3cccs3)no2)C1 (centres undefined),"inconclusive: 56.2 µM [inhibitor, partial curve]",
Cc1cc[n+](-c2[nH]c(=O)sc2/C=N/N=C(\[O-])CCn2c3ccccc3c3ccccc32)cc1,"inconclusive: 79.4 µM [inhibitor, partial curve]",
Cc1nc(N2CCOCC2)nc(N2CCC(C)CC2)c1[N+](=O)[O-],"inconclusive: 44.7 µM [inhibitor, partial curve]",
O=C(Nc1cc(S(=O)(=O)N2CCOCC2)ccc1N1CCCC1)c1ccc2c(c1)S(=O)(=O)c1ccccc1C2=O,,inconclusive: -71.7% [inhibitor]
O=C(c1ccco1)N1CCN(C(=O)c2cc(-c3ccccn3)nc3ccc(Cl)cc23)CC1,inactive,
Clc1ccccc1C1Nc2cccc3cccc(c23)N1,"inconclusive: 50.1 µM [inhibitor, partial curve]",
CC(=O)OCC1=C(C(=O)O)N2C(=O)C(NC(=O)CC(C)c3ccccc3)C2SC1 (centres undefined),inactive,
CN(C)[C@@H](CO)c1nnc([C@H](CC(=O)O)NC(=O)C2CCNCC2)o1,"inconclusive: 70.8 µM [inhibitor, partial curve, poor fit]",
Cn1c(SCC(=O)N2CCN(Cc3ccccc3)CC2)nnc1-c1ccncc1,inactive,
Cc1ccc(NC(=O)c2ccc3c(c2)CCN3S(C)(=O)=O)c(C)c1,"inconclusive: 15.8 µM [inhibitor, single point]",
C#CCOc1ccc2ccccc2c1/C=C(/C#N)c1ccc(C(=O)O)cc1,"inconclusive: 63.1 µM [inhibitor, partial curve, poor fit]",
CC(C)n1c(CN(C)Cc2ccccc2)nc2c1c(=O)n(C)c(=O)n2C,inactive,
Cc1ccc(-c2cc(C(=O)Nc3ccc(S(=O)(=O)Nc4onc(C)c4C)cc3)c3ccccc3n2)cc1,"inconclusive: 39.8 µM [inhibitor, partial curve]",
CNc1cc(C(F)(F)F)nc(-c2ccccn2)n1,"inconclusive: 2.51 µM [inhibitor, partial curve, poor fit]",
CCN1C(=O)/C(=C2/C(=O)N3c4c(cc(OC(C)=O)cc42)C(C)=CC3(C)C)SC1=S,"inconclusive: 1.78 µM [inhibitor, full curve]",
Cc1ccc(C(=O)COC(=O)c2cn3ccccc3n2)cc1,inactive,
O=C(Nc1ccccc1N1CCCC1)C1CCN(S(=O)(=O)c2cccc(C(F)(F)F)c2)CC1,"inconclusive: 17.8 µM [inhibitor, full curve, poor fit]",

SMILES,Potency,"activity change, negative = inhibition"
Cn1c(COc2nnc(-c3ccc(Cl)cc3)c3ccccc23)nc2ccccc21,inactive,
CC1=C(Nc2ccc(C(=O)O)cc2)C(=O)c2ccccc2C1=O,"inconclusive: 56.2 µM [inhibitor, partial curve]",
Cc1ccc(C)c(OCCC(=O)Nc2ccc3c(c2)OCO3)c1,inactive,
CCc1cccc(-n2c(=O)c3cccnc3n2CC(=O)Nc2ccccc2C(=O)OC)c1,inactive,
O=C(N/N=C/c1c(O)ccc2ccccc12)c1cccc(C(F)(F)F)c1,inactive,
O=C(COc1ccccc1Cl)Nc1ccc(N2CCN(C(=O)c3ccccc3)CC2)cc1,"inconclusive: 31.6 µM [inhibitor, partial curve]",
O=C(Cc1ccc([N+](=O)[O-])cc1)Nc1cccc(C(=O)N2CCCC2)c1,inactive,
COCCN1C(=O)/C(=C/c2ccc(Oc3ccc([N+](=O)[O-])cn3)c(OC)c2)SC1=Nc1ccccc1,"inconclusive: 3.16 µM [inhibitor, full curve, poor fit]",
COc1ccc(CN(C(=O)c2ccc(-c3ccccc3)[nH]2)C(C(=O)NCC2CCCO2)c2ccc(C)o2)cc1 (centres undefined),"inconclusive: 44.7 µM [inhibitor, partial curve]",
N#Cc1c(NC(=O)CSc2ncc(-c3ccccc3)n2CC2CCCO2)sc2c1CCCC2 (centres undefined),"inconclusive: 10 µM [inhibitor, full curve]",
NC(=O)c1ccc2c(=O)n3c(-c4cc(Cl)c(N)c(Cl)c4)csc3nc2c1,active: 70.8 µM,
CC1C(=O)N2CCCc3cc(S(=O)(=O)Nc4ccc(Br)cc4F)cc1c32 (centres undefined),inactive,
C/C(=N\Nc1nc(-c2ccccc2)cs1)c1cccs1,"inconclusive: 63.1 µM [inhibitor, partial curve, poor fit]",
COc1ccccc1C(=O)Nc1ccc2c(c1)nc1n2CCN(C2CCCCC2)C1,"inconclusive: 20 µM [inhibitor, full curve]",
C[N+]1(CC(=O)OC2CCCCCCCCCCC2)CCCC1,"inconclusive: 35.5 µM [inhibitor, single point]",
COC(=O)C1C2CC3c4[nH]c5cc(OC)ccc5c4CCN3CC2CC(O)C1OC (centres undefined),"inconclusive: 56.2 µM [inhibitor, partial curve, poor fit]",
O=C(Cn1cnc2c(NCc3ccccc3)ncnc21)N1CCN(c2ccccn2)CC1,inactive,
COc1ccc2c(c1)CC/C2=N\OC(=O)c1ccccc1OC,inactive,
CCn1c(CNc2ccc(OC)cc2)nnc1SCC(=O)N1CCCc2ccccc21,"inconclusive: 50.1 µM [inhibitor, partial curve, poor fit]",
CC(C)OCCCNc1ncc2c(n1)CC(c1cccs1)CC2=O (centres undefined),inactive,
COC1=C(C)C(O)=C(C(=O)/C=C/c2ccccc2)C(=O)C1(C)C,"inconclusive: 20 µM [inhibitor, full curve, poor fit]",
CCOc1ccc(C(=O)Nc2cc(C)ccn2)cc1,active: 12.6 µM,
O=C(O)/C(=C\c1ccc(Cl)cc1)c1ccc(S(=O)(=O)N2CCCC2)s1,inactive,

SMILES,Potency,"activity change, negative = inhibition"
CCCCCc1cc(=O)oc2c(C(CCN(CC)CC)c3cc(OC)c(OC)c(OC)c3)c(OC)cc(OC)c12 (centres undefined),"inconclusive: 56.2 µM [inhibitor, partial curve]",
Cc1ccccc1COc1ccc(/C(O)=C2/C(=O)C(=O)N(CCCn3ccnc3)C2c2ccco2)cc1 (centres undefined),"inconclusive: 56.2 µM [inhibitor, partial curve]",
Cc1ccc(S(=O)(=O)NCCOCCNS(=O)(=O)c2ccc(C)cc2)cc1,"inconclusive: 89.1 µM [inhibitor, partial curve]",
Nc1cc(=O)[nH]c(SCC(=O)N2N=C(c3ccc4ccccc4c3)CC2c2ccccc2)n1 (centres undefined),"inconclusive: 22.4 µM [inhibitor, full curve]",
CCOc1cccc(-c2c(C(=O)N/N=C(\C)c3ccccn3)nnn2-c2nonc2N)c1,active: 25.1 µM,
O=C(O)c1cc(-c2ccc(N3CCOCC3)cc2)nn1-c1ccccc1Cl,"inconclusive: 100 µM [inhibitor, single point]",
CC(C)Oc1ccc(CNC(=O)C2CCCN(S(=O)(=O)c3ccc4c(ccn4C)c3)C2)cc1 (centres undefined),inactive,
CCOc1ccc(C(=O)Nc2ccc(-c3nc4ccccc4[nH]3)cc2)cc1[N+](=O)[O-],active: 79.4 µM,
S=c1[nH]c2ccccc2n1CCc1ccncc1,"inconclusive: 31.6 µM [inhibitor, full curve, poor fit]",
O=C(c1ccc([N+](=O)[O-])s1)N1CCN(c2ccccn2)CC1,"inconclusive: 56.2 µM [inhibitor, partial curve]",
O=C(Nc1cccc(-c2cn3c(n2)SCC3)c1)c1ccc2c(c1)OCO2,"inconclusive: 56.2 µM [inhibitor, partial curve]",
COCCCNC(=S)N1CCN(c2nc(-c3ccc(F)cc3)cs2)CC1,"inconclusive: 50.1 µM [inhibitor, partial curve]",
Cc1ccc(NC(=O)c2cccnc2C(=O)Nc2ccc(C)cc2)cc1,inactive,
O=C(CN1CCC(C(=O)c2cccc(Cl)c2)CC1)Nc1ccc(C(=O)O)cc1,inactive,
CCC(c1nnc(SCCNCCO)n1CCN1CCOCC1)N(C)C (centres undefined),"inconclusive: 3.55 µM [inhibitor, full curve, poor fit]",
Cc1ccc(CNC(=O)C2CCCN(Cc3cnn(-c4ccccc4)c3-n3cccc3)C2)cc1 (centres undefined),"inconclusive: 79.4 µM [inhibitor, partial curve]",
CC(C)OC(=O)CSc1nnc(-c2ccco2)n1N,inactive,
COC(=O)c1c(NC(=O)COc2ccc(OC)cc2)sc2c1CCC(C)C2 (centres undefined),inactive,
COCn1c(-c2ccc(OC)cc2)nc2ccccc21,"inconclusive: 89.1 µM [inhibitor, single point]",
Oc1c(Br)cc(C=Nc2ccc3nc(-c4ccccc4)[nH]c3c2)c(O)c1Br,"inconclusive: 44.7 µM [inhibitor, partial curve]",
Cc1sc2ncn(CC(=O)Nc3ccc(C(F)(F)F)cc3)c(=O)c2c1S(=O)(=O)N1CCN(C)CC1,inactive,
O=C(/C=C/Nc1cccc([N+](=O)[O-])c1)c1ccco1,"inconclusive: 56.2 µM [inhibitor, partial curve]",
CCOc1ccc(OCC(=O)c2c(O)c3ccccc3oc2=O)cc1,active: 11.2 µM,
